Measured values as given in the supplement of paper PMC11417369.
± gives the standard deviation of the averaged measurements. Some of the results follow.

system: PfAP2-G AP2 domain (GST-tagged); assay: gcPBM binding intensity (ln(normalized median fluorescence intensity)); higher = stronger DNA binding
How it was run: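 In this array assay, P. falciparum DNA-binding domains with a GST tag, expressed in E. coli, were applied for 1 h to primer-extended double-stranded 36-bp intergenic genomic probes and negative controls on an Agilent 4 × 180k array. Bound protein was visualised with Alexa488 anti-GST antibody at 488 nm. Binding intensity is the highest Masliner-normalised natural-log median intensity across replicate spots of either probe orientation.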

| Sequence | gcPBM binding intensity (ln) |
| --- | --- |
| ACATCTAATTTGTATACACACAATAATAAATGGTGA [CACACA_site824] | 10.07 ± 0.099 |
| TTTACTTTCTTATTTTCACACATTTAAAAAAAAATT [CACACA_site5949] | 10.1 ± 0.18 |
| TATTAATTTTTAAACATAATTTTTCGTATAATATAT [CACACA_negctrl_site762] | 9.81 ± 0.11 |
| GAGATAAAATAAAACACACACATATATTTATATAAC [CACACA_site7098] | 9.795 ± 0.021 |
| GTATCGAAGTAAATACGTACTTAAATATGTTTAAAA [XGTACX_site1353] | 11.3 ± 0.77 |
| ACGTACTGCCCTAAAGTGCATATATAATATAAACGA [GTGCAC_site9911] | 10.5 ± 0.43 |
| TACACAAGAAAATTCACACACACACGGATATTTATA [CACACA_site7765] | 9.88 ± 0.057 |
| CTTTAAACCCTGAACACACACAAATACAGACAAAAA [CACACA_site247] | 10.4 ± 0.38 |
| GTATTTTAATATAAATGTACATAAATGTTATATATA [XGTACX_site3475] | 11.1 ± 0.73 |
| AATATTGTATATAATAAACACACAATATTAAAAATA [CACACA_site8262] | 10.11 ± 0.021 |
| ATAAGATATGTATATACACACATTTATTTACCTATA [CACACA_site7521] | 9.96 ± 0.14 |
| TTATTATTTTATAACACACACATATATATTATATCT [CACACA_site1434] | 9.895 ± 0.007 |
| CATATATAAATCATGTGTACGTATTGAGTATCTACT [XGTACX_site6278] | 11.5 ± 0.97 |
| AGGATATATAATTAAGTGCATTAATTCAAAATAAAA [GTGCAC_site9702] | 10.05 ± 0.085 |
| ATATGACTTAAATATGTGCGCATTTTTTTTTTTTTT | 10.5 ± 0.34 |
| TAAACAAAATATATATGTACATATATATATATATAT [XGTACX_site6502] | 11.2 ± 0.81 |
| ATCTAGCCATTTTTTAGTACACATAAATAAAAAAAA [XGTACX_site1257] | 11.5 ± 1.1 |
| CATTAATAACAAAGTTGTACAAGATAATATTATATG [XGTACX_site6832] | 11.3 ± 0.73 |
| AAAACATTTTCAAACTGTACACATAGAACTATGCAT [XGTACX_site4087] | 11.4 ± 0.82 |

| Sequence | gcPBM binding intensity (ln) |
| --- | --- |
| ACATAAGAAGTTATATGTACATATATTTTTTAAATT [XGTACX_site8078] | 11.2 ± 0.72 |
| TTTTATTTGACAAGCACACACTTAAATATATTTATA [CACACA_site7557] | 10.3 ± 0.2 |
| TATATTTTAGTTAATGCATGTGTGCATCCATTTAAA [TGCATGCA_site887] | 9.89 ± 0.2 |
| ATACATATATATATATGTACACACATTAATAAAAAA [XGTACX_site6874] | 11.5 ± 0.93 |
| TACCAAAATAGACACACACACAAAATATGTAAATAT [CACACA_site6963] | 10.1 ± 0.18 |
| TATAAATAAATTTATACACACACACCCATATATATA [CACACA_site8183] | 10.1 ± 0.17 |
| AAAAAAAAAAGACACACACACAAATACAAATGGTAA [CACACA_site6906] | 10.05 ± 0.021 |
| TTTGTTATATTTAATACACACATATTATAAACCCAT [CACACA_site3716] | 10.3 ± 0.4 |
| ATAAAGCCATACAATACACACATTTTACATGGCTGT [CACACA_site5756] | 9.96 ± 0.085 |
| TAAAATTAGGAAATTGCACACAAAAAAAAACATATT [CACACA_site9349] | 10.17 ± 0.099 |
| ATATTTTATGTAAAGGTGCAAAACAACATTAAAAAA | 10.3 ± 0.23 |
| ACTACATAAAATGACACACACAAACTTTAAAATTTA [CACACA_site3474] | 10.3 ± 0.33 |
| CACCTGCACGATTGCACACAAATATGTTTTGAAGAT [CACACA_site2103] | 10.3 ± 0.15 |
| TATATTTGGAAACACACACACAAAAAAAAAAAAAAA [CACACA_site2474] | 9.9 ± 0.61 |
| ATATTTTCTAATCAATGTACTTATTCTACACATTAA [XGTACX_site5774] | 11.3 ± 0.92 |
| ACCCAATTTTTTAGTACACACATATAAATATATAAA [CACACA_site4944] | 11.6 ± 1.1 |
| AACACATACAGACACACACACAAAAAAAAAAAAAAA [CACACA_site6322] | 10.2 ± 0.73 |
| TTTTTTTTTTTTCACGTGCACTATACATATAAGTAA | 10.4 ± 0.47 |
| CTCTTGTCATTTTGCACACACACATGGATAGGTTAT [CACACA_site5655] | 10.4 ± 0.23 |

| Sequence | gcPBM binding intensity (ln) |
| --- | --- |
| AAACAAAAGTAGAAGGTAGAGTATTTTATATTTAAA [GTGCAC_negctrl_site503] | 9.68 ± 0.18 |
| AAACCTTTAGAAAATCGTACAAAACATAACCACCTA [XGTACX_site1098] | 11.2 ± 0.71 |
| ATTTTTTTTTTTTGTTTTTTCTTACAAATTAAATGA [CACACA_negctrl_site1457] | 9.88 ± 0.16 |
| AAATAACTCATGGGTTGTACTTAAAAAAAAAAAGAT [XGTACX_site4168] | 11.3 ± 0.78 |
| TTAATCTAGAGAAATTGTACATTTTATTAACACAAT [XGTACX_site1190] | 10.8 ± 0.33 |
| ATAAAAGAAAACAATAGTACTTTAGTTTTTCTTTTT [XGTACX_site5686] | 10.7 ± 0.15 |
| ATATATACATTTCTATGTACATATGTATATATGTAT [XGTACX_site1522] | 11 ± 0.45 |
| ATATATCACATGAACATTAAAAAAAAAAAAGAGGGG [TGCATGCA_negctrl_site187] | 10.6 ± 0.52 |
| TAAAATGATAAATGAATGTGATCATTTTATAAAATA [CACACA_negctrl_site674] | 9.9 ± 0.042 |
| AATATTTATAAATTTACACACACACCGGTGAACATA [CACACA_site8579] | 10.35 ± 0.078 |
| TTTATACAATTAGACACACACAAAAAGTATAAATAT [CACACA_site6637] | 10.3 ± 0.16 |
| ATATCACATTCCACGGTACACACTAATAGAAAAATC [CACACA_site9204] | 11 ± 0.57 |
| GGAACATATGAACTCACACACATTTTCACTTAAATA [CACACA_site3684] | 10.2 ± 0.16 |
| TATTTTTAGAAAATAAAGAAGGAGAATTGAAAATAT [CACACA_negctrl_site361] | 9.93 |
| AAGAAAAGATATATATATAAATATATATATATATAT [TGCATGCA_negctrl_site353] | 9.73 ± 0.61 |
| ATTTATTTTTATCAAGCATGCATAAAAAATAAATTA [TGCATGCA_site440] | 9.84 ± 0.2 |
| TTTTATTTTGGAACGTGTACATATAATTATTTATTG [XGTACX_site8094] | 11.4 ± 0.79 |
| TTTAAACTAGAACAAGTGCAGATATGTATAATAATA | 10.1 ± 0.16 |
| ATACCTTCTTCATTCACACATATACGTAAAATGTTC [CACACA_site5657] | 10.4 ± 0.25 |
